Results taken from the supplement of paper PMC10338343.
± gives the standard deviation. The list shows a part of the results, in another mix than the full data.

What follows are sequences tested on MIWI (PIWIL1) piRISC loaded with piRNA #1 (30 nt) (assay: pre-steady-state target cleavage rate (min^-1); MIWI and MILI are mouse PIWI proteins and EfPiwi is from a freshwater sponge; tags in brackets are library labels; higher = faster piRNA-guided slicing of the target). Conditions: guide: piRNA #1 5'p-UGAGGUAGUAGGUUGUAUAGUAUCCAGAGG; auxiliary factor: 500 nM mouse GTSF1.
Outline: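 In this Cleave-'n-Seq assay, uncleaved targets were sequenced and normalised to depth and to weakly complementary targets. They came from a transcribed, DNA-blocked target RNA library […] mixed with 1 nM active affinity-purified piRISC carrying one synthetic guide, with or without 500 nM GTSF1 partner protein, in HEPES–potassium acetate buffer at 33 °C for 0–8 or 0–960 min. After three trials were pooled and k3 was capped at 0.0001 min^-1, the pre-steady-state cleavage rate was obtained from a burst-and-steady-state fit.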
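Further: 1 nM active piRISC with 0.1 nM target library at 33 °C single turnover.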

Row | Sequence | pre-steady-state target cleavage rate
1 | GGACUGGUUACUAUACUACCUACUACCUCA | 1.09 ± 0.15
2 | CCUCUGGAUACUAAACAACCUACUUCCUCA | 0.551 ± 0.046
3 | GGUCUGGAUACUAUACAACCUACUAGCUCA | 0.136 ± 0.029
4 | GGAGACCUUACUAGACAACCUACUACCUCA | 1.3 ± 0.1
5 | GGAGACCAUACUAUUCAACCUACUACGUCA | 0.69 ± 0.044
6 | GGAGAGGAUACUAUCCAACCUACUACCUCA | 1.71 ± 0.081
7 | GGAGAGGAUACUCAUACAACCUACUACCUCA | 1.44 ± 0.1
8 | GGAGACGAUACUAUACUACCUACUACCUCA | 1.33 ± 0.075
9 | GGAGAGGAUUCUUUACAACCUACUACCUCA | 0.996 ± 0.067
10 | GGAGACCUAACUAUACAAGCUUCUACCUCA | 0.0289 ± 0.0062
11 | GGAGACCUAACUUUACAUCCUACUACCUCA | 0.138 ± 0.052
12 | GGAGUGGAUUCUAUACAACGUACUACCUCA | 0.953 ± 0.059
13 | GGAGACCAUACUAUGCAACCUACUACCUCA | 1.67 ± 0.1
14 | GGUCUGGAUACUAUACAACCUACUGACCUCA | 0.364 ± 0.041
15 | CCUCUGGAUACUAUACAUACCUACUACCUCA | 0.0115 ± 0.005
16 | GGAGACCAUACUAAUGAACCUACUACCUCA | 0.00823 ± 0.0037
